Results from PMC10904736, “A c-di-GMP signaling module controls responses to iron in Pseudomonas aeruginosa” (Nature Communications, 2024).
No constants are given. Whether binding was seen depends on the method and setting. Some results given as binding are weak or reduced against the parent protein; the word gives no strength.

How the values were obtained:
[1] = molecular target: CHASE4 domain of IsmP (CHASE4^IsmP) (Pseudomonas aeruginosa PAO1) (UniProt Q9I243); experiment: crystal structure; CHASE4^IsmP, sitting-drop vapor diffusion at 289.15 K; 1.9 Å, P22_(1)2_(1); both purified
[2] = molecular target: CHASE4 domain of IsmP (CHASE4^IsmP) (Pseudomonas aeruginosa PAO1) (UniProt Q9I243); experiment: SEC + native gel or EMSA; CHASE4 domain expressed in Fe^3+-containing M9 medium; both purified

binding [1]: binds | binding [2]: binds
Substance: CHASE4 domain of IsmP (CHASE4^IsmP) (from UniProt Q9I243 40-255) (domain or fragment)
